Measured values published in the supplement of paper PMC4967469.
IC50 is the fitted dose that halves viability relative to control wells, and lower means more sensitive; fits outside the tested doses are given as limits. AUC is the area under the same curve over the 256-fold range up to the top dose, as a fraction; the more sensitive the line, the further below 1. For part of these data: A top dose marked as inferred was calculated from the reported fits.

Columns and labels:
Assay in all cases: Viability of human cancer cell lines after 72 h of drug (GDSC screen)
Vinorelbine = compound: CCC1=C[C@@H]2CN(C1)Cc1c([nH]c3ccccc13)[C@@](C(=O)OC)(c1cc3c(cc1OC)N(C)[C@H]1[C@@](O)(C(=O)OC)[C@H](OC(C)=O)[C@]4(CC)C=CCN5CC[C@]31[C@@H]54)C2 [Vinorelbine]; details: top dose 0.064 µM; top dose inferred
Description: (§1)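 Human cancer cell lines in 384-well plates, medium with 10% serum, drug for 72 h over a 256-fold dose range (nine 2-fold or five 4-fold steps up to the top dose). Adherent lines were fixed and stained with the nucleic acid dye Syto60, suspension lines read with resazurin; signal relative to control wells, capped at 0 and 100%. One two-parameter sigmoid per drug and line, fitted in a mixed model over all curves with the slope shared within a line.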

Erlotinib = compound: C#Cc1cccc(Nc2ncnc3cc(OCCOC)c(OCCOC)cc23)c1 [Erlotinib]; details: top dose 2 µM
Description: as §1

Phenformin = compound: N=C(N)NC(=N)NCCc1ccccc1 [Phenformin]; details: top dose 4000 µM; top dose inferred
Description: as §1

AG-014699 = compound: CNCc1ccc(-c2[nH]c3cc(F)cc4c3c2CCNC4=O)cc1 [AG-014699]; details: top dose 5 µM; top dose inferred
Description: as §1

QL-XI-92 = compound: C=CC(=O)Nc1cc(NC(=O)c2ccc(C)c(NC(=O)c3ccno3)c2)cc(C(F)(F)F)c1 [QL-XI-92]; details: top dose 10.24 µM; top dose inferred
Description: as §1

XL-184 = compound: COc1cc2nccc(Oc3ccc(NC(=O)C4(C(=O)Nc5ccc(F)cc5)CC4)cc3)c2cc1OC [XL-184]; details: top dose 5.12 µM; top dose inferred
Description: as §1

Gefitinib = compound: COc1cc2ncnc(Nc3ccc(F)c(Cl)c3)c2cc1OCCCN1CCOCC1 [Gefitinib]; details: top dose 0.5 µM
Description: as §1

EHT 1864 = compound: O=c1cc(CN2CCOCC2)occ1OCCCCCSc1ccnc2cc(C(F)(F)F)ccc12 [EHT 1864]; details: top dose 10 µM; top dose inferred
Description: as §1

WHI-P97 = compound: COc1cc2ncnc(Nc3cc(Br)c(O)c(Br)c3)c2cc1OC [WHI-P97]; details: top dose 10.24 µM; top dose inferred
Description: as §1

NU-7441 = compound: O=c1cc(N2CCOCC2)oc2c(-c3cccc4c3sc3ccccc34)cccc12 [NU-7441]; details: top dose 2 µM; top dose inferred
Description: as §1

S-Trityl-L-cysteine = compound: N[C@@H](CSC(c1ccccc1)(c1ccccc1)c1ccccc1)C(=O)O [S-Trityl-L-cysteine]; details: top dose 5.12 µM; top dose inferred
Description: as §1

Cell Line	AUC (Vinorelbine)	IC50 (Vinorelbine)	AUC (Erlotinib)	IC50 (Erlotinib)	AUC (Phenformin)	IC50 (Phenformin)	AUC (AG-014699)	IC50 (AG-014699)	AUC (QL-XI-92)	IC50 (QL-XI-92)	AUC (XL-184)	IC50 (XL-184)	AUC (Gefitinib)	IC50 (Gefitinib)	AUC (EHT 1864)	IC50 (EHT 1864)	AUC (WHI-P97)	IC50 (WHI-P97)	AUC (NU-7441)	IC50 (NU-7441)	AUC (S-Trityl-L-cysteine)	IC50 (S-Trityl-L-cysteine)
ECC12 (stomach, suspension)	0.339	0.00126 µM	0.471	0.102 µM	–	–	–	–	–	–	–	–	–	–	–	–	–	–	–	–	–	–
HCC2998 (large intestine, adherent)	0.563	0.00592 µM	0.987	> 2 µM	0.746	1240 µM	0.944	> 5 µM	0.984	> 10.2 µM	0.972	> 5.12 µM	0.986	> 0.5 µM	0.967	> 10 µM	0.987	> 10.2 µM	–	–	–	–
LOXIMVI (melanoma, semi-adherent)	0.841	0.0375 µM	0.99	> 2 µM	0.685	770 µM	0.988	> 5 µM	0.981	> 10.2 µM	0.959	> 5.12 µM	–	–	0.987	> 10 µM	0.987	> 10.2 µM	0.943	> 2 µM	–	–
OVCAR-4 (ovary, adherent)	0.428	0.0023 µM	0.809	1.76 µM	0.681	1040 µM	0.974	> 5 µM	0.972	> 10.2 µM	0.924	> 5.12 µM	–	–	0.936	> 10 µM	0.959	> 10.2 µM	0.929	> 2 µM	–	–
SK-UT-1 (soft tissue, adherent)	0.392	0.00208 µM	–	–	0.883	3640 µM	0.924	> 5 µM	0.973	> 10.2 µM	0.989	> 5.12 µM	0.963	> 0.5 µM	0.963	> 10 µM	0.989	> 10.2 µM	0.899	> 2 µM	0.612	0.632 µM
SU-DHL-4 (B-cell lymphoma, suspension)	0.836	0.0267 µM	–	–	0.16	36.5 µM	0.997	> 5 µM	0.983	> 10.2 µM	0.944	4.72 µM	0.995	> 0.5 µM	0.985	> 10 µM	0.997	> 10.2 µM	0.997	> 2 µM	0.712	1.04 µM
SU-DHL-16 (B-cell lymphoma, suspension)	0.365	0.00188 µM	–	–	0.483	228 µM	0.988	> 5 µM	0.674	1.69 µM	0.604	0.57 µM	0.996	> 0.5 µM	0.957	> 10 µM	0.992	> 10.2 µM	0.992	> 2 µM	0.684	0.893 µM
SUP-B15 (lymphoblastic leukaemia, suspension)	0.45	0.00293 µM	–	–	0.307	74 µM	0.796	2.23 µM	0.488	0.596 µM	0.762	1.75 µM	0.983	> 0.5 µM	0.934	> 10 µM	0.901	> 10.2 µM	0.919	> 2 µM	0.582	0.532 µM
SUP-HD1 (Hodgkin lymphoma, suspension)	0.733	0.0178 µM	–	–	0.804	1890 µM	0.985	> 5 µM	0.806	4.9 µM	0.944	> 5.12 µM	0.964	> 0.5 µM	0.98	> 10 µM	0.972	> 10.2 µM	0.937	> 2 µM	0.833	3.1 µM
SW684 (fibrosarcoma, adherent)	0.74	0.0273 µM	–	–	0.906	> 4000 µM	0.967	> 5 µM	0.981	> 10.2 µM	0.983	> 5.12 µM	0.983	> 0.5 µM	0.918	> 10 µM	0.983	> 10.2 µM	0.937	> 2 µM	0.946	> 5.12 µM
SW954 (urogenital system, adherent)	0.536	0.00504 µM	–	–	0.3	67.9 µM	0.874	4.97 µM	0.922	> 10.2 µM	0.78	2.13 µM	0.899	> 0.5 µM	0.963	> 10 µM	0.873	10.1 µM	0.981	> 2 µM	0.58	0.533 µM
SW962 (urogenital system, adherent)	0.765	0.0291 µM	–	–	0.668	828 µM	0.946	> 5 µM	0.97	> 10.2 µM	0.91	> 5.12 µM	0.953	> 0.5 µM	0.98	> 10 µM	0.937	> 10.2 µM	0.849	> 2 µM	0.69	1.25 µM
SW982 (soft tissue, adherent)	0.564	0.00601 µM	–	–	0.971	> 4000 µM	0.892	> 5 µM	0.832	6.8 µM	0.92	> 5.12 µM	0.978	> 0.5 µM	0.98	> 10 µM	0.96	> 10.2 µM	0.929	> 2 µM	0.674	0.997 µM
TE-9 (oesophagus, adherent)	0.301	–	–	–	0.864	3720 µM	0.934	> 5 µM	0.986	> 10.2 µM	0.983	> 5.12 µM	0.962	> 0.5 µM	0.933	> 10 µM	0.973	> 10.2 µM	0.959	> 2 µM	0.671	0.977 µM
TE-11 (oesophagus, adherent)	0.562	0.00582 µM	–	–	0.878	3440 µM	0.958	> 5 µM	0.99	> 10.2 µM	0.971	> 5.12 µM	0.967	> 0.5 µM	0.955	> 10 µM	0.99	> 10.2 µM	0.981	> 2 µM	0.575	0.503 µM
TGBC1TKB (biliary tract, adherent)	0.848	0.047 µM	–	–	0.971	> 4000 µM	0.98	> 5 µM	0.985	> 10.2 µM	0.973	> 5.12 µM	0.976	> 0.5 µM	0.976	> 10 µM	0.984	> 10.2 µM	0.975	> 2 µM	0.807	2.6 µM
TGW (neuroblastoma, adherent)	0.925	> 0.064 µM	–	–	0.988	> 4000 µM	0.977	> 5 µM	0.99	> 10.2 µM	0.92	> 5.12 µM	0.992	> 0.5 µM	0.99	> 10 µM	0.926	> 10.2 µM	0.982	> 2 µM	0.742	1.4 µM
TUR (B-cell lymphoma, suspension)	0.569	0.00608 µM	–	–	0.569	379 µM	0.979	> 5 µM	0.962	> 10.2 µM	0.923	> 5.12 µM	0.979	> 0.5 µM	0.932	> 10 µM	0.969	> 10.2 µM	0.987	> 2 µM	0.987	> 5.12 µM
U-698-M (B-cell leukaemia, suspension)	0.634	0.0094 µM	–	–	0.537	316 µM	0.987	> 5 µM	0.965	> 10.2 µM	0.912	> 5.12 µM	0.983	> 0.5 µM	0.901	> 10 µM	0.903	> 10.2 µM	0.97	> 2 µM	0.96	> 5.12 µM
UACC-257 (melanoma, adherent)	0.76	0.0277 µM	0.973	> 2 µM	0.725	1290 µM	0.892	> 5 µM	0.97	> 10.2 µM	0.916	> 5.12 µM	–	–	0.843	9.79 µM	0.978	> 10.2 µM	–	–	–	–
VA-ES-BJ (soft tissue, adherent)	0.47	0.00329 µM	–	–	0.947	> 4000 µM	0.956	> 5 µM	0.982	> 10.2 µM	0.959	> 5.12 µM	0.956	> 0.5 µM	0.925	> 10 µM	0.985	> 10.2 µM	0.923	> 2 µM	0.655	0.887 µM
VCaP (prostate, adherent)	0.664	0.0116 µM	–	–	0.976	> 4000 µM	0.987	> 5 µM	0.878	> 10.2 µM	0.93	> 5.12 µM	0.987	> 0.5 µM	0.984	> 10 µM	0.953	> 10.2 µM	0.979	> 2 µM	0.816	2.97 µM
WIL2-NS (lymphoid neoplasm, suspension)	0.568	0.00591 µM	–	–	0.37	118 µM	0.991	> 5 µM	0.921	> 10.2 µM	0.912	4.96 µM	0.992	> 0.5 µM	0.981	> 10 µM	0.98	> 10.2 µM	0.992	> 2 µM	0.687	0.95 µM
WSU-NHL (lymphoid neoplasm, suspension)	0.828	0.0331 µM	–	–	0.754	1200 µM	0.976	> 5 µM	0.989	> 10.2 µM	0.872	3.88 µM	0.987	> 0.5 µM	0.955	> 10 µM	0.99	> 10.2 µM	0.831	1.06 µM	0.98	> 5.12 µM
